{"source": "PubChem BioAssay AID720709", "about": "(National Center for Advancing Translational Sciences (NCATS), 2013)", "note": "Out of some 360,000 compounds screened, about 520 (0.14%) were called active. The inconclusive results got no clear call from the source; some entries with a clear call stand among them for comparison. Calls come from the whole dose curve; as a rule, active = well fitted inhibition curve with a large enough effect; inconclusive = small, poorly fitted or top-dose-only effect; inactive = no such curve, though single readings can be large or run the other way. Potencies of inconclusive entries are left out as doubtful fits. Potency is the fitted concentration of half-maximal effect; tags give direction and shape of the fitted curve.", "data": [{"biological_target": "Rap guanine nucleotide exchange factor 3 (Homo sapiens) (UniProt O95398)", "sequence (O95398 whole entry, looked up)": "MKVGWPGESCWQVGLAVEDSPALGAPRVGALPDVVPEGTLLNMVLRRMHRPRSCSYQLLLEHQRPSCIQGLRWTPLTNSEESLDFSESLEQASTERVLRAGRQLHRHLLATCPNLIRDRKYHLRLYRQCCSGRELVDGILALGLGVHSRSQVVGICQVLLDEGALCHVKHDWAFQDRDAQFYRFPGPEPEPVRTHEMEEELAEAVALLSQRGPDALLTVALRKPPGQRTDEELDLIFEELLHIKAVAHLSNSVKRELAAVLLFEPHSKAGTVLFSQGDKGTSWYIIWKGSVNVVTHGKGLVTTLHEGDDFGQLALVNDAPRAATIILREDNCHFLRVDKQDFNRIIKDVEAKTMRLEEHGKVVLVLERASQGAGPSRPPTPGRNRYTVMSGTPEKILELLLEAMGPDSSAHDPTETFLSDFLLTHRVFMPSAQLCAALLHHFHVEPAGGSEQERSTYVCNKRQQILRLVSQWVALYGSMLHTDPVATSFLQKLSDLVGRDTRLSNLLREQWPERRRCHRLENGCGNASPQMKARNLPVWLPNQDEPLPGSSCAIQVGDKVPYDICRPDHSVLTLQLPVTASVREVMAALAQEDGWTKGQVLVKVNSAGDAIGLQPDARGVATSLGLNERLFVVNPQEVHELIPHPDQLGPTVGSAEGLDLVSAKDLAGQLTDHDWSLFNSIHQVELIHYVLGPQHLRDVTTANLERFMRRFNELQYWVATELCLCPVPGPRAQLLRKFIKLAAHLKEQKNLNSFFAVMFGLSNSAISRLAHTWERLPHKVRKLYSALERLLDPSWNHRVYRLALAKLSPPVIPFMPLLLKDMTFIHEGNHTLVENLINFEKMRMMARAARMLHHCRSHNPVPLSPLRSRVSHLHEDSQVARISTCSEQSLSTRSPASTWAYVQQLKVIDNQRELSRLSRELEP", "assay": "qHTS for Antagonist of cAMP-regulated guanine nucleotide exchange factor 3 (EPAC1): primary screen; note: nearly all actives have a fitted effect of over 50% in size;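 for activity change, negative = inhibition: plate controls were vehicle for no effect and positive control for full effect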", "conditions": "EPAC1 GEF assay, Rap1b-BODIPY-GDP exchange fluorescence; activity change, negative = inhibition: at 115 µM (top of the series)", "values": [{"smiles": "Cc1cccc(N2C(=O)C=CC2=O)c1", "activity change, negative = inhibition": "inactive: -0.373%"}, {"smiles": "CC(=O)Nc1ccc(-c2ccnc3c2CC(C)(C(=O)Nc2ccc(F)c(Cl)c2)O3)cc1", "note": "(stereo not given)", "Potency": "inconclusive [inhibitor, partial curve, poor fit]"}, {"smiles": "COc1ccc2[nH]c(=O)c(CN(C(=O)c3cccnc3)c3ccc(C)cc3C)cc2c1", "Potency": "inconclusive [inhibitor, single point]"}, {"smiles": "O=C(NCCc1ccc(O)c(O)c1)C1COc2ccccc2O1", "note": "(stereo not given)", "Potency": "inconclusive [inhibitor, partial curve]"}, {"smiles": "O=C(Nc1cccc(S(=O)(=O)NCc2ccco2)c1)c1cc(-c2ccccc2)nc2ccccc12", "Potency": "inconclusive [inhibitor, partial curve]"}, {"smiles": "CCCc1cc(=O)[nH]c(SCc2nc3ccc([N+](=O)[O-])cc3[nH]2)n1", "Potency": "inconclusive [inhibitor, single point]"}, {"smiles": "O=C(CCl)N(C/C=C/c1ccccc1)c1ccc2c(c1)OCCO2", "Potency": "inconclusive [inhibitor, partial curve]"}, {"smiles": "CC(C)(C)C(=O)N1CCN(c2nc3ccc(Cl)cc3s2)CC1", "activity change, negative = inhibition": "inactive: -25.8%"}, {"smiles": "COc1cc(/C=N/Nc2ccccn2)ccc1OCC(C)C", "Potency": "inconclusive [inhibitor, partial curve]"}, {"smiles": "COc1ccc(-n2c(=O)c3c4c(sc3n3c(=S)[nH]nc23)COC(C(C)C)C4)cc1", "note": "(stereo not given)", "Potency": "inconclusive [inhibitor, full curve, poor fit]"}, {"smiles": "CCc1nn(CCCC(=O)N2CCN(c3cccc(C)c3C)CC2)c(=O)c2cc3occc3n12", "activity change, negative = inhibition": "inactive: -11.3%"}, {"smiles": "O=[N+]([O-])c1cccc(-c2nc3ccc([N+](=O)[O-])cc3[nH]2)c1", "activity change, negative = inhibition": "inactive: -27.9%"}, {"smiles": "CC(=O)Nc1ccc(S(=O)(=O)NNC(=O)NC23CC4CC(CC(C4)C2)C3)cc1", "Potency": "inconclusive [inhibitor, single point]"}, {"smiles": "CCN(CC)C(=O)CSc1nc2ccsc2c(=O)n1CCCC(=O)NCCc1ccc(S(N)(=O)=O)cc1", "Potency": "inconclusive [inhibitor, partial curve]"}, {"smiles": "C/C(CC(=O)Nc1ccc(Cl)c(C(F)(F)F)c1)=N\\NC(=O)c1cnccn1", "Potency": "inconclusive [inhibitor, partial curve, poor fit]"}, {"smiles": "O=C(/C(=N/N=C/c1ccc(O)c(O)c1O)c1ccccc1)c1ccccc1", "Potency": "inconclusive [inhibitor, partial curve]"}, {"smiles": "COc1ccc2c(c1)CCc1sc(NC(=O)c3ccco3)nc1-2", "Potency": "inconclusive [inhibitor, partial curve]"}, {"smiles": "Fc1cc(Cl)c(OCc2noc(-c3ccsc3)n2)c(Cl)c1", "activity change, negative = inhibition": "inactive: -2.55%"}, {"smiles": "COc1ccc(NC(=O)C2CCCCN2N)cc1OCC(C)C", "note": "(stereo not given)", "Potency": "inconclusive [inhibitor, single point]"}, {"smiles": "CCOC(=O)c1cnc(Nc2nc3ccccc3o2)nc1C", "activity change, negative = inhibition": "inactive: 10.3%"}, {"smiles": "CC(C)CNc1ncnc2c1ncn2[C@H]1CN(Cc2ccc(F)cc2)C[C@@H](CO)O1", "activity change, negative = inhibition": "inconclusive: -19.6% [inhibitor]"}, {"smiles": "CN(C)c1ccc(C(CNC(=O)c2cccs2)N(C)C)cc1", "note": "(stereo not given)", "Potency": "inconclusive [inhibitor, partial curve]"}, {"smiles": "O=C1CC(c2ccco2)CC(O)=C1C=Nc1ccccc1-c1ccccc1", "note": "(stereo not given)", "Potency": "inconclusive [inhibitor, single point]"}, {"smiles": "Cc1n(Cc2ccccc2)c2ccccc2[n+]1Cc1ccccc1", "Potency": "inconclusive [inhibitor, single point]"}, {"smiles": "COc1ccccc1-n1cnc2cc(NCc3ccccn3)ccc21", "activity change, negative = inhibition": "inactive: -6.58%"}, {"smiles": "CCN(CC)C(=O)C1=C(C)N(Cc2ccc(C(C)(C)C)cc2)C(=O)C(CC(=O)NCc2cccs2)C1", "note": "(stereo not given)", "Potency": "inconclusive [inhibitor, single point]"}, {"smiles": "Cc1cccc(S(=O)(=O)N(C)C[C@@H]2OCc3cn(nn3)CCCC(=O)N([C@H](C)CO)C[C@H]2C)c1", "Potency": "inconclusive [inhibitor, single point]"}, {"smiles": "Cc1ccccc1-n1sc2cc(F)ccc2c1=O", "Potency": "inconclusive [inhibitor, full curve, poor fit]"}, {"smiles": "CC(Sc1ncnc2sc(-c3ccccc3)cc12)C(=O)NCC1CCCO1", "note": "(stereo not given)", "activity change, negative = inhibition": "inactive: -7.13%"}, {"smiles": "C[C@]12CCC3C(CC=C4C[C@@H](O)CC[C@@]43C)C1CCC2[C@]1(C)CCC(=O)O1", "note": "(stereo not given in full)", "Potency": "inconclusive [inhibitor, single point]"}, {"smiles": "Nc1nonc1-n1nnc(C(=O)N/N=C/c2ccc(OCc3cccc(Cl)c3)cc2)c1CN1CCCCC1", "activity change, negative = inhibition": "inactive: -1.26%"}, {"smiles": "CCCn1c(Oc2ccccc2)nc2c1c(=O)n(C)c(=O)n2C", "Potency": "inconclusive [inhibitor, full curve, poor fit]"}, {"smiles": "COc1ccc(C(C(=O)NCc2ccccc2)N(Cc2cccnc2)C(=O)c2snc(C(N)=O)c2N)cc1OC", "note": "(stereo not given)", "Potency": "inconclusive [inhibitor, single point]"}, {"smiles": "COC(C(=O)NNS(=O)(=O)c1ccc([N+](=O)[O-])cc1)c1ccccc1", "note": "(stereo not given)", "activity change, negative = inhibition": "inactive: 4.01%"}, {"smiles": "CC(=O)N1CCC(=NNc2ccc(S(N)(=O)=O)cc2[N+](=O)[O-])CC1", "Potency": "inconclusive [inhibitor, partial curve]"}, {"smiles": "COc1ccc(NC(=O)c2sc3nc(Cc4ccccc4)cc(C(F)(F)F)c3c2N)cc1OC", "Potency": "inconclusive [inhibitor, full curve, poor fit]"}, {"smiles": "O=[N+]([O-])c1ccc(N/N=C/c2ccc(O)c(O)c2O)c(S(=O)(=O)N2CCOCC2)c1", "Potency": "inconclusive [inhibitor, partial curve]"}, {"smiles": "O=C(CSc1cccc[n+]1[O-])Nc1c(Br)cc([N+](=O)[O-])cc1Br", "activity change, negative = inhibition": "inactive: -6.18%"}, {"smiles": "COc1cc2c(cc1OC)-c1cc(Nc3ccc(F)cc3)nc(=O)n1CC2", "Potency": "inconclusive [inhibitor, single point]"}, {"smiles": "COc1ccc(N=C2NC(=O)/C(=C\\C=C\\c3ccco3)S2)cc1", "Potency": "inconclusive [inhibitor, partial curve, poor fit]"}, {"smiles": "COCCN(C(=O)COC(=O)c1ccccc1NCc1ccco1)c1c(N)n(Cc2ccccc2)c(=O)[nH]c1=O", "activity change, negative = inhibition": "inactive: 3.35%"}, {"smiles": "CC1(C(=O)Nc2cnc3ccccc3c2)CCN1Cc1ccccc1OC(F)F", "note": "(stereo not given)", "Potency": "inconclusive [inhibitor, partial curve]"}, {"smiles": "Cc1cccc(/C(N)=N/OC(=O)C23CC4CC(CC(C4)C2)C3)c1", "activity change, negative = inhibition": "inactive: -14.6%"}, {"smiles": "Cc1ccc(/C=C/C(=O)Nc2ccc(S(=O)(=O)Nc3cc(C)nc(C)n3)cc2)cc1", "Potency": "inconclusive [inhibitor, partial curve]"}, {"smiles": "CCN(CC)c1ccc(NC(=O)CN2C(=O)CC(C)(C)S(=O)(=O)c3ccccc32)c(C)c1", "Potency": "inconclusive [inhibitor, single point]"}, {"smiles": "O=C(NCC1CCN(Cc2ccc(F)cc2)CC1)Nc1cc(F)ccc1F", "activity change, negative = inhibition": "inactive: -5.77%"}, {"smiles": "COc1ccccc1N1C(=O)c2ccccc2NC1c1ccncc1", "note": "(stereo not given)", "activity change, negative = inhibition": "inactive: -12.8%"}, {"smiles": "Nc1[nH]ncc1-c1ccc(F)cc1", "Potency": "inconclusive [inhibitor, single point]"}, {"smiles": "NS(=O)(=O)c1cc(C(=O)OCC(=O)c2ccc3c(c2)OCCO3)ccc1Cl", "Potency": "inconclusive [inhibitor, single point]"}, {"smiles": "CC(C)CCNc1nc(-c2ccco2)c2c(c1C#N)CCCC2", "Potency": "inconclusive [inhibitor, partial curve]"}, {"smiles": "CN1CC=C2C(C#N)=C(N)C(C#N)(C#N)C(CCc3ccccc3)C2C1", "note": "(stereo not given)", "Potency": "inconclusive [inhibitor, full curve]"}, {"smiles": "CN(C)S(=O)(=O)c1cccc(-c2nn(-c3ccccc3)cc2/C=C2\\SC(=S)NC2=O)c1", "Potency": "active: 70.8 µM"}, {"smiles": "O=C(Cn1cncn1)NCc1ccc(Cl)cc1", "Potency": "inconclusive [inhibitor, full curve, poor fit]"}, {"smiles": "CCOc1ccccc1N1CCN(C(=O)c2cc3c(C)cc(C)cc3[nH]2)CC1", "Potency": "inconclusive [inhibitor, partial curve]"}, {"smiles": "O=C(Nc1ccc2[nH]c(=S)sc2c1)Nc1ccccc1F", "Potency": "inconclusive [inhibitor, single point]"}, {"smiles": "COc1cc(C2CC(c3cccs3)=NN2C(=O)CCl)ccc1OC(F)F", "note": "(stereo not given)", "Potency": "inconclusive [inhibitor, partial curve]"}, {"smiles": "CCOC(=O)c1c(S(=O)(=O)NC2CCN(C(=O)OCC)CC2)c(C)n(C)c1C", "Potency": "inconclusive [inhibitor, single point]"}, {"smiles": "Cc1ccc(S(=O)(=O)N(C)CC(=O)NCCCn2nc(C)cc2C)cc1", "Potency": "inconclusive [inhibitor, single point]"}, {"smiles": "CCOCCCNC(=O)CN1C(=O)C(CC)Oc2ccccc21", "note": "(stereo not given)", "activity change, negative = inhibition": "inactive: -1.4%"}, {"smiles": "COc1cccc2c1NC(C(=O)O)C1CC=CC21", "note": "(stereo not given)", "Potency": "inconclusive [inhibitor, single point]"}, {"smiles": "CCOc1ccc(N2C(=O)C3C(c4ccc(OC)cc4OC)NC(CCSC)(C(=O)OC)C3C2=O)cc1", "note": "(stereo not given)", "Potency": "inconclusive [inhibitor, single point]"}, {"smiles": "Cc1ccccc1OCCC(=O)OCC(=O)NC(=O)c1ccccc1", "Potency": "inconclusive [inhibitor, single point]"}, {"smiles": "CCn1c(SCC(=O)Nc2ccc(OC)cc2)nc2c1c(=O)n(C)c(=O)n2C", "Potency": "inconclusive [inhibitor, single point]"}, {"smiles": "O=C(C1CCCCN1S(=O)(=O)c1ccccc1[N+](=O)[O-])N1CCCC1", "note": "(stereo not given)", "Potency": "inconclusive [inhibitor, partial curve]"}, {"smiles": "COC(=O)C1CCN(C(=O)c2cc(-c3ccco3)nc3ccccc23)CC1", "Potency": "inconclusive [inhibitor, partial curve, poor fit]"}]}]}
